# Results published in PubChem BioAssay AID485344 (National Center for Advancing Translational Sciences (NCATS), 2010).
# About 6,900 (2%) of roughly 340,000 compounds were called active. Rule as the data show it: active = inhibition above about 30%; inactive = below that, where a call was filed. The entries are a selection whose mix differs from that of the whole data set. Where no call is shown, the source filed none.
# Target: D(2) dopamine receptor (Homo sapiens) (UniProt P14416)
# Experiment: HTS Assay for Allosteric Antagonists of the Human D2 Dopamine Receptor: Primary Screen for Antagonists; also: 0% is about no effect
# Conditions: HEK293 TREx D2 cells, calcium flux, dopamine EC80; at 10 µM; stronger effect = higher value
# Procedure, shortened: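 Measurement of antagonist activity uses fluorescent calcium dye in inducible HEK293 T-REx D2 cells: 10 s baseline, compound addition with 180 s read, EC80 dopamine addition with a further 180 s read.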
# UniProt P14416, sequence (P14416 whole entry, looked up): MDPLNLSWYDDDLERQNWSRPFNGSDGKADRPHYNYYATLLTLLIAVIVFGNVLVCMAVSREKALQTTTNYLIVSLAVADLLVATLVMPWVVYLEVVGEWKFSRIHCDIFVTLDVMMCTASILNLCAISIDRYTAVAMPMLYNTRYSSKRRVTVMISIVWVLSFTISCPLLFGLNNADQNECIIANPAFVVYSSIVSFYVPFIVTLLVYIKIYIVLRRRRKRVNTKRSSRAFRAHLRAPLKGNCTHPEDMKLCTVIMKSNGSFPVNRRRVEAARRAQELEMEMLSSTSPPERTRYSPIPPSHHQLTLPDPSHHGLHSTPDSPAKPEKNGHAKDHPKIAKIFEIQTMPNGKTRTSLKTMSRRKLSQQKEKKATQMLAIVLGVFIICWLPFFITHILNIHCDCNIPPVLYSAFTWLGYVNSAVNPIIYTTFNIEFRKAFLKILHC
row,SMILES,inhibition
1,Cc1cc(C)c(NC(=O)C(=O)NCC(c2cccnc2)N2CCN(c3ccccc3F)CC2)c(C)c1 (configuration not stated),-4.61%
2,O=C(CN1C(=O)c2cccc3cccc1c23)Nc1cccc(F)c1,-1.56%
3,CC(=O)Nc1cccc(NC(=O)CSc2nccn2C2CCCC2)c1,-19.6%
4,CN(Cc1ccccc1)c1ccc(-c2nc(-c3ccccc3)no2)cc1[N+](=O)[O-],11.9%
5,COc1ccccc1NC(=O)CSc1nc2c(oc3ccccc32)c(=O)n1-c1ccccc1F,17.7%
6,CN1C(=O)Cc2cc(S(=O)(=O)CCC(=O)N3CCN(c4ccc(Cl)cc4)CC3)ccc21,9.16%
7,Cc1cc2oc(C(=O)N(Cc3ccc(N(C)C)cc3)CC3CCCO3)c(C)c2cc1Cl (configuration not stated),-1.29%
8,COc1ccc(NC(=O)c2oc3ccccc3c2NC(=O)c2cc(C)cc(C)c2)c(OC)c1,-11.1%
9,CN(CC(=O)Nc1ccc(Br)cc1)S(=O)(=O)c1cccc2nsnc12,6.99%
10,COc1ccc(NC(=O)C2CCN(C(=O)c3sc4nc[nH]c(=O)c4c3C)CC2)cc1Cl,12.5%
11,CCOc1ccccc1NC(=O)CSc1nccn1Cc1ccc(F)cc1,-2.72%
12,O=C(OCC1CCCO1)c1ccc2c(c1)N(Cc1ccccc1F)C(=O)c1ccccc1S2(=O)=O (configuration not stated),-2.06%
13,Cc1ccccc1C(=O)Nc1ccc(C(=O)OCc2cc(=O)n3c4c(sc3n2)CCCC4)cc1,9.72%
14,Cc1ccc(C(=O)Nc2ccc(F)cc2)cc1S(=O)(=O)N1CCOCC1,-5.9%
15,Cc1cccc(CNC(=O)c2cnc3sc(N4CCOCC4)nn3c2=O)c1,5.77%
16,CCOc1cccc(CN2CCCC(N3CCN(c4cccc(Cl)c4)CC3)C2)c1O (configuration not stated),active: 36.6%
17,Cc1nn(CC(=O)NCc2ccccc2Br)c(=O)c2cc3occc3n12,1.01%
18,Cc1ccc(S(=O)(=O)N2CCCc3cc(NC(=O)c4c(F)cccc4F)ccc32)cc1,8.44%
19,CCc1ccc(C2=C(C)C(N3CCC(C(=O)NCc4ccc(C)o4)CC3)=NS2(=O)=O)cc1,3.04%
20,CCCCNC(=O)[C@@H](c1ccccc1)N1Cc2ccccc2C1=O,-5.32%
21,Cc1ccc(Cl)cc1-n1ncc2c(N3CCC(C(N)=O)CC3)ncnc21,-9.29%
22,Cc1cccc(OCCCCn2c(C3CC(=O)N(c4ccc(C)cc4C)C3)nc3ccccc32)c1 (configuration not stated),-8.48%
23,CNc1oc(/C=C/c2cc(OC)c(OC)c(OC)c2)nc1C#N,3.89%
24,CCN1CCOC(=O)C1CC(=O)Nc1cc(Cl)ccc1OC (configuration not stated),9.76%
25,CCCCn1c(=O)c2oc3ccccc3c2n(CC(=O)Nc2ccccc2OC)c1=O,-18.2%
26,COC(=O)COc1ccc2c(-c3cccc([N+](=O)[O-])c3)cc(=O)oc2c1,active: 49.5%
27,O=C(N[C@@H](Cc1ccccc1)C(=O)OCc1ccccc1)c1nc[nH]c1C(=O)NC1CCNCC1,active: 76.1%
